Out of some 340,000 compounds screened, about 12,000 (3.5%) were called active. Inconclusive means that the source gave no clear call. Such entries were picked first, then a sample of the others. The call rests on the fitted dose curve; in most records, active means well fitted inhibition curve with a large enough effect; inconclusive means small, poorly fitted or top-dose-only effect, or another doubt; inactive means no such curve, though single readings can be large or run the other way. No potency is given beside an inconclusive call; the fits are too rough.
Assay: qHTS Assay for Inhibitors of Hepatitis C Virus (HCV)
Settings: Huh7.5.1 HCVcc-Cre (HCVcc is cell-culture hepatitis C virus) infection, luciferase reporter, 44 h; series mostly up to 41.8 µM
How it was run: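 Compounds are dispensed onto cells plated 4 h earlier at 1,000 per well, with HCVcc-Cre virus (about 0.5 moi) added next. Following 44 h of culture, luminescent signal is measured for 15 sec after 15 min with substrate at room temperature.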
Potency means the concentration at half of the fitted maximal effect; tags describe the fitted curve by direction and shape.

| Compound | Potency |
| --- | --- |
| O=S(=O)(Nc1ccc(Cc2ccncc2)cc1)c1ccc(Cl)c(Cl)c1 | active: 7.94 µM |
| COc1cc(C(=O)OCC(=O)Nc2ccc(S(=O)(=O)NC3=NCCCCC3)cc2)cc(OC)c1OC | inconclusive [inhibitor, partial curve] |
| C[C@]12CCC3C(CC[C@H]4CC(O)CC[C@]34C)C1CC/C2=N/O (stereo partly drawn) | inconclusive [inhibitor, single point] |
| COc1ccc(NC(=O)COC(=O)c2c(-c3ccccc3)noc2C)cc1 | inconclusive [inhibitor, single point] |
| O=C(COc1coc(CN2CCCc3ccccc32)cc1=O)Nc1ccccc1 | inconclusive [inhibitor, partial curve] |
| O=C(O)c1cccc(NC2=C(Cl)C(=O)c3ccccc3C2=O)c1 | inconclusive [inhibitor, single point] |
| COc1cc(OC)c(NS(=O)(=O)c2ccc(Cl)c(C(=O)OC(C)C(=O)N3CCCC3)c2)cc1Cl (stereo not drawn) | inconclusive [inhibitor, single point] |
| O=C(Nc1ncnc2sc3c(c12)CCCCC3)c1ccc(F)cc1 | inconclusive [inhibitor, single point] |
| O=C(O)Cc1ccc(C(=O)CSc2ccccc2)s1 | inactive |
| Cc1ccccc1C(=O)Nc1ccccc1-c1nnn(CC(=O)Nc2ccc3c(c2)OCCO3)n1 | active: 5.01 µM |
| Cc1cc(=O)oc2cc(NC(=O)c3cccc(S(=O)(=O)N(C)C)c3)ccc12 | inconclusive [inhibitor, partial curve] |
| CCN(C(=O)c1c(-c2ccccc2Cl)noc1C)C1CCCCC1 | inconclusive [inhibitor, single point] |
| Nc1ccc(N2CCCCC2)cc1N1CCCCC1 | inconclusive [inhibitor, single point] |
| Cc1nc(C(=O)NNC(=O)c2ccc(Cl)cc2)c(C(F)(F)F)o1 | inactive |
| CCN1CCN(C(=O)/C=C/c2ccc([N+](=O)[O-])cc2)CC1 | inconclusive [inhibitor, single point] |
| O=C(Nc1ccccc1N1CCCC1)c1ccc2ccccc2c1 | inconclusive [inhibitor, single point] |
| Cc1nn(-c2ccccc2)c(C)c1/C=N/NC(=O)c1cc(-c2ccc(Cl)s2)[nH]n1 | inconclusive [inhibitor, partial curve, poor fit] |
| COC(=O)CC1COc2ccccc2N1C(=O)c1cc(OC)c(OC)c(OC)c1 (stereo not drawn) | inactive |
| O=C(CSc1ncn[nH]1)N1CCCCC1 | inactive |
| OCC1OCOC2C(CO)OCOC12 (stereo not drawn) | inactive |
| O=C(CSc1n[nH]c(=O)[nH]c1=O)N/N=C/c1ccccc1 | inactive |
| O=C(CC1SC(=O)NC1=O)Oc1ccc(/C=N/NC(=O)c2ccccc2O)cc1 (stereo not drawn) | inactive |
| Cc1cc(OCC(=O)OCC(=O)Nc2cc(S(=O)(=O)N3CCOCC3)ccc2Cl)ccc1Cl | inactive |

| Compound | Potency |
| --- | --- |
| CN1Cc2cccnc2N(C)Cc2cc(Cl)ccc21 | inconclusive [inhibitor, single point] |
| S=C(c1ccc2c(c1)OCO2)N1CCN(c2cccc(Cl)c2)CC1 | inconclusive [inhibitor, partial curve] |
| O=S(=O)(NC1CCCCC1Nc1ccc(Cl)cc1)c1ccccc1 (stereo not drawn) | inconclusive [inhibitor, single point] |
| CC(C)(O)/C=C/C(=O)C(C)(O)C1C(O)CC2(C)C3CC=C4C(C=C(O)C(=O)C4(C)C)C3(C)C(=O)CC12C (stereo not drawn) | inconclusive [inhibitor, partial curve, poor fit] |
| COc1ccc(-c2cc(C(=O)Nc3cccnc3)c3ccccc3n2)cc1OC | inactive |
| CCCNc1nc(C)nc2c1cnn2CCc1ccccc1 | inconclusive [inhibitor, single point] |
| Cc1c(O)ccc2c3c(c(=O)oc12)CCC(C)C3 (stereo not drawn) | inconclusive [inhibitor, single point] |
| Cc1cccc(N(CC(=O)NC2CCCC2)C(=O)c2cc3cc4cccc(C)c4nc3s2)c1C | inconclusive [inhibitor, full curve] |
| O=C(CSc1nc2ccccc2o1)N1c2ccccc2Sc2ccc(Cl)cc21 | inconclusive [inhibitor, partial curve] |
| COc1ccc(NC(=O)C2Cc3cccc(OC)c3O/C2=N\O)cc1 (stereo not drawn) | inconclusive [inhibitor, partial curve] |
| O=C(Nc1ccc(Cn2nnc3ccccc32)cc1)c1ccco1 | inconclusive [inhibitor, single point] |
| O=C(Cn1cnc([N+](=O)[O-])n1)c1ccc(O)c(O)c1 | inactive |
| CCn1c(=S)[nH]c2c(c1=O)C(C)(C)Cc1ccccc1-2 | inactive |
| Cc1cccc(C)c1OP(N)(=O)OCC(F)(F)F (stereo not drawn) | inactive |
| OC(C#Cc1ccccn1)c1cccs1 (stereo not drawn) | inconclusive [inhibitor, single point] |
| O=c1c(Br)ccc(Br)cc1Br | inconclusive [inhibitor, full curve] |
| Cc1cc(S(=O)(=O)Nc2ccc3cn[nH]c3c2)c(C)cc1Cl | inconclusive [inhibitor, single point] |
| COc1ccc(C(=O)CSc2nc(=O)n(Cc3cccnc3)c3c2CCC3)cc1 | inconclusive [inhibitor, partial curve] |
| CCCCCCC(=O)N/N=C/c1c(O)n(C(C)CC)c(=S)[nH]c1=O (stereo not drawn) | inconclusive [inhibitor, single point] |
| CN1CCN(c2nc(N3CCN(c4ccccc4)CC3)ncc2F)CC1 | active: 6.31 µM |
| O=C(NC(=S)NNC(=O)c1cccs1)c1ccc(Br)o1 | inconclusive [inhibitor, full curve, poor fit] |
| CCC1(c2ccccc2)NC(=O)N(CC(=O)Nc2cccc(S(=O)(=O)N3CCCCC3)c2)C1=O (stereo not drawn) | inconclusive [inhibitor, partial curve, poor fit] |
| Clc1ccc(-c2cc(C3CCNCC3)[nH]n2)c(Cl)c1 | inconclusive [inhibitor, partial curve] |

| Compound | Potency |
| --- | --- |
| CCOc1ccc(OCC)c(S(=O)(=O)N2CCCCC2C)c1 (stereo not drawn) | inconclusive [inhibitor, single point] |
| C/C(=N\NC(=O)c1ccc(CN2CCOCC2)cc1)c1ccc(NC(=O)c2ccccc2)cc1 | inconclusive [inhibitor, partial curve] |
| COc1ccccc1NC(=O)COc1ccc(C(=O)OCC(=O)N(C(C)C)C(C)C)cc1OC | inconclusive [inhibitor, single point] |
| CSc1cccc(NC(=O)c2cc(S(=O)(=O)N3CCCC3)cn2C)c1 | inconclusive [inhibitor, full curve, poor fit] |
| O=C(CCCc1c[nH]c2ccccc12)NCCc1c[nH]c2ccccc12 | inconclusive [inhibitor, single point] |
| COC(=O)c1ccccc1NC(=O)/C=N/O | inconclusive [inhibitor, single point] |
| COc1ccc(S(=O)(=O)N2CCOC2CNC(=O)C(=O)NCCc2c[nH]c3ccccc23)cc1C (stereo not drawn) | active: 11.2 µM |
| COC(=O)C1=C(c2cc3ccccc3s2)C[C@@H]2CC[C@H]1N2C(=O)N1CCCCC1 | inconclusive [inhibitor, partial curve] |
| Cc1ccc(NC(=O)c2ccccc2Br)cc1S(=O)(=O)N(C)C | inconclusive [inhibitor, single point] |
| O=C(NC(NC(=S)Nc1c(Cl)cccc1Cl)C(Cl)(Cl)Cl)c1cccc([N+](=O)[O-])c1 (stereo not drawn) | inconclusive [inhibitor, single point] |
| Cc1ccc(N/C(SCc2ccccc2C)=C(/C#N)C(=O)NCc2ccco2)cc1C | inconclusive [inhibitor, single point] |
| CC1CCCN(C(=O)CN(C)S(=O)(=O)c2ccc3c(c2)c(=O)n(C)c(=O)n3C)C1 (stereo not drawn) | inconclusive [inhibitor, single point] |
| CCCCC(=O)O | inactive |
| CC(N)Cc1cn(Cc2ccccc2)c2ccccc12 (stereo not drawn) | inconclusive [inhibitor, single point] |
| Cn1c2ccccc2c(=O)c2cc(C#Cc3cccc(N)c3)ccc21 | inconclusive [inhibitor, full curve] |
| CC(C)(C)c1ccc(C(=O)N2CCCN(c3ccc([N+](=O)[O-])cn3)CC2)cc1 | inconclusive [inhibitor, single point] |
| O=C(c1cccs1)N1CCc2c([nH]c3ccccc23)C1c1ccc(Cl)cc1 (stereo not drawn) | inconclusive [inhibitor, partial curve] |
| Cc1cccc(N2CCN(C3=NC(=O)C(=C4CCCCC4)S3)CC2)c1 | inconclusive [inhibitor, single point] |
| COc1ccc(N2CCN(C(=O)c3sc4nc(-c5ccc(F)cc5)cn4c3C)CC2)cc1 | inactive |
| Clc1ccc(COc2ccccc2CNCc2cccnc2)cc1 | active: 10 µM |
| CN1CCN(CCOc2ccc(Cc3ccccc3)cc2)CC1 | inconclusive [inhibitor, partial curve] |
| COc1ccc2c(c1)[nH]c1c(N3CCN(Cc4ccc5c(c4)OCO5)CC3)ncnc12 | inconclusive [inhibitor, full curve] |
